Results taken from patent US11446314B2, “Immunoablative therapies” (AVM Biotechnology LLC, priority 2018, dated 2022).

Tested on: bone marrow mesenchymal stem cells
Test: Horse sternal bone marrow MSC number and trilineage differentiation
Type: in vivo
Conditions: horses, 6 mg/kg HED, one hour IV infusion

## C[C@@H]1C[C@H]2[C@@H]3CCC4=CC(=O)C=C[C@]4(C)[C@@]3(F)[C@@H](O)C[C@]2(C)[C@@]1(O)C(=O)CO [dexamethasone]
  trilineage differentiation capacity of the MSC towards osteocytes, chondrocytes or adipocytes: did not alter
